PubChem BioAssay AID588591 (National Center for Advancing Translational Sciences (NCATS), 2011)
About 4,700 (1.2%) of roughly 390,000 compounds were called active. Inconclusive results, whose numbers are uncertain, are shown with a selection of clear calls. Calls follow the shape of the dose curve; as a rule, active = well fitted inhibition curve with a large enough effect; inconclusive = small, poorly fitted or top-dose-only effect, or another doubt; inactive = no such curve, though single readings can be large or run the other way. A potency beside an inconclusive call is a rough fit, not a confirmed value.

These compounds were tested against DNA polymerase eta (Homo sapiens) (UniProt Q9Y253) (assay: qHTS for Inhibitors of Polymerase Eta). Settings: recombinant Pol eta, fluorescent DNA replication assay; series mostly up to 114 µM; activity change, negative = inhibition: at the top concentration.
Outline: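 Pol eta at 10 nM preincubated with compounds 15 min at room temperature; reaction started with fluorescent substrate (50 nM final) and read kinetically at 0 and 10 min.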
% is scaled to controls: 0 for no effect and ±100 for the full control effect; potency is read from the fitted curve at half-maximal effect; tags tell the direction and shape of the fitted curve.

Chain of UniProt Q9Y253 (Q9Y253 whole entry, looked up): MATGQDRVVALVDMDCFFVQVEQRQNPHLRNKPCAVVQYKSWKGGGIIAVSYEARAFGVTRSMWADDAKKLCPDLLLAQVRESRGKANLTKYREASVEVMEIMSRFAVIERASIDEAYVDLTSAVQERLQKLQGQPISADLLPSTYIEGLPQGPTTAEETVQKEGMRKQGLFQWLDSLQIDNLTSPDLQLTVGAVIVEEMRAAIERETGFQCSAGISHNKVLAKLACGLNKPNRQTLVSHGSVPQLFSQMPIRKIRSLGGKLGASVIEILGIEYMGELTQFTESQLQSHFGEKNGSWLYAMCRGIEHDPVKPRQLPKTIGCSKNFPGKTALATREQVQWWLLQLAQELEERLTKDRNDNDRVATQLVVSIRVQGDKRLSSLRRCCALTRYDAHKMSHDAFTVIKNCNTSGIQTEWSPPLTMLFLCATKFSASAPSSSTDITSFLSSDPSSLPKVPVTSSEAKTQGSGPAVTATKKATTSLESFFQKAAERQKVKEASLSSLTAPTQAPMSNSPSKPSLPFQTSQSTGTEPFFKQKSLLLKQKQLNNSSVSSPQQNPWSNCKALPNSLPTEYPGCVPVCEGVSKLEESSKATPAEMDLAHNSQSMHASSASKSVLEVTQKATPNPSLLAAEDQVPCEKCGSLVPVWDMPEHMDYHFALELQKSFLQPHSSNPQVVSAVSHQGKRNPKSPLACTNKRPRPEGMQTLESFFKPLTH

Row | Structure (SMILES) | Potency | activity change, negative = inhibition
1 | Cc1c2ccccc2nc2c(F)c(NCCO)c(F)c(F)c12 | inconclusive: 20 µM [inhibitor, single point] | –
2 | CCOc1ccccc1Nc1nnc(-c2cc3cc(OC)ccc3oc2=O)s1 | active: 56.2 µM | –
3 | COc1ccccc1-c1nn2c(C3COc4ccccc4O3)nnc2s1 (stereo not drawn) | inconclusive: 22.4 µM [inhibitor, single point] | –
4 | Cc1cc(C)cc(NS(=O)(=O)c2ccc3[nH]cc(C(=O)N4CCc5ccccc54)c(=O)c3c2)c1 | inconclusive: 15.8 µM [inhibitor, partial curve] | –
5 | COCCCNc1nc2c(-c3cccc(C)c3)nnn2c2ccc(Cl)cc12 | active: 25.1 µM | –
6 | Cc1ccc(/C=N/NC(=O)CSc2nc3ccccc3n2Cc2ccc(Cl)cc2)o1 | inconclusive: 56.2 µM [inhibitor, partial curve, poor fit] | –
7 | CCOC(=O)C1CCN(C(=O)COc2cc(C)c(Br)cc2C)CC1 | inconclusive: 79.4 µM [inhibitor, partial curve, poor fit] | –
8 | CCOc1ccccc1NC(=O)C(OC(=O)c1ccc(O)cc1)c1ccccc1 (stereo not drawn) | inconclusive: 70.8 µM [inhibitor, partial curve, poor fit] | –
9 | CS(=O)(=O)N1Cc2ccccc2CC1C(=O)OCC(=O)NCc1ccccc1 (stereo not drawn) | active: 15.8 µM | –
10 | O=C(CCC1CCCCC1)NCc1ccncc1 | – | inactive: -16.9%
11 | COc1cc(OC)cc(C(=O)N[C@H](C(=O)OCC(=O)Nc2sccc2C#N)C(C)C)c1 | active: 50.1 µM | –
12 | COc1ccc(CC(=O)n2[nH]c(=O)c3ccccc3c2=O)cc1OC | – | inactive: -14.2%
13 | Nc1cc2c(cc1[N+](=O)[O-])OCO2 | active: 44.7 µM | –
14 | CC(=O)Nc1ccc(/C(C)=N/Nc2nc(Nc3ccccc3)nc(N3CCOCC3)n2)cc1 | – | inactive: -16.7%
15 | O=S(=O)(c1cnccc1N1CCN(CCO)CC1)N1CCCCC1 | inconclusive: 22.4 µM [inhibitor, single point] | –
16 | NC(N)=NN=C(c1ccc(F)cc1)c1ccc(C(F)(F)F)cc1 | inconclusive: 7.94 µM [inhibitor, full curve, poor fit] | –
17 | CC1=CC2=NC(=O)CC(C)(C(=O)N(CC(=O)NC3CCCC3)c3ccccc3C)N2C=C1 (stereo not drawn) | inconclusive: 89.1 µM [inhibitor, partial curve, poor fit] | –
18 | N#Cc1ccsc1NC(=O)CSc1nncs1 | active: 39.8 µM | –
19 | COCCn1c(SCC(=O)Nc2ccc(Cl)cn2)nnc1-c1ccncc1 | inconclusive: 31.6 µM [inhibitor, partial curve, poor fit] | –
20 | CCS(=O)(=O)c1nc(S(=O)(=O)c2ccc(C)cc2)c(N2CCCCCC2)s1 | – | inactive: -16.7%
21 | CN(C)CCN1C(=O)c2cccc3cc([N+](=O)[O-])cc(c23)C1=O | inconclusive: 39.8 µM [inhibitor, single point] | –
22 | COc1ccc(/C=N/NC(=O)CCn2c3ccccc3c3ccccc32)cc1OC | inconclusive: 7.08 µM [inhibitor, partial curve, poor fit] | –
23 | CCOC(=O)C1=C(O)/C(=C/c2ccc(OCC(=O)O)c(OCC)c2)SC1=Nc1ccc(OC)cc1 | inconclusive: 17.8 µM [inhibitor, full curve, poor fit] | –

Row | Structure (SMILES) | Potency | activity change, negative = inhibition
24 | N#Cc1ccsc1NC(=O)CSc1ncn[nH]1 | – | inactive: -7.6%
25 | O=C(Cn1cnc2c(oc3ccccc32)c1=O)Nc1ccc(F)cc1F | – | inactive: -5.37%
26 | CCCCCc1nc(N)c(C#N)c(-c2ccco2)c1CCCC | inconclusive: 28.2 µM [inhibitor, single point] | –
27 | CCc1ccc([C@@H]2CC=C(C(=O)O)[C@H](c3cccc(Cl)c3)N2S(=O)(=O)c2ccc(C)cc2)cc1 | inconclusive: 89.1 µM [inhibitor, partial curve, poor fit] | –
28 | O=C(NC(=S)NC12CC3CC(CC(C3)C1)C2)c1ccc(F)cc1 | – | inactive: -11.7%
29 | Cc1cccc(C)c1NC(=O)CCCN1C(=O)C(c2ccccc2)Oc2cccnc21 (stereo not drawn) | inconclusive: 100 µM [inhibitor, partial curve, poor fit] | –
30 | COc1ccc2[nH]cc(CCNS(=O)(=O)c3ccc(C)cc3)c2c1 | inconclusive: 89.1 µM [inhibitor, partial curve, poor fit] | –
31 | O=C(N/N=C/c1cc(Cl)ccc1O)c1ccc(Br)cc1 | inconclusive: 12.6 µM [inhibitor, partial curve] | –
32 | Clc1ccccc1-c1nnc(-c2ccccc2CNc2ccc(Br)cc2)o1 | – | inactive: -23.5%
33 | COc1cccc2c1C(=N)c1c(O)c3c(c(O)c1C2=O)CC(O)(C(C)=O)CC3OC1CC(N)C(O)C(C)O1 (stereo not drawn) | inconclusive: 14.1 µM [inhibitor, full curve, poor fit] | –
34 | Cc1[nH]nc(C(=O)NN=Cc2ccccc2Cl)c1N=NN(C)C | inconclusive: 20 µM [inhibitor, partial curve] | –
35 | O=C(CNC(=O)Cc1ccccc1)N=Nc1c(O)n(Cc2ccc3c(c2)OCO3)c2ccccc12 | inconclusive: 89.1 µM [inhibitor, single point] | –
36 | O=C(O)CCN1C(=O)/C(=C\c2ccc(OCc3ccccc3)c(OCc3ccccc3)c2)SC1=S | inconclusive: 31.6 µM [inhibitor, partial curve] | –
37 | CCN(CCCNC(=O)c1cc2cc3ccc(OC)cc3nc2s1)c1cccc(C)c1 | inconclusive: 89.1 µM [inhibitor, partial curve, poor fit] | –
38 | O=C(NNC1CC(=O)N(c2ccccc2)C1=O)c1cccnc1 (stereo not drawn) | inconclusive: 100 µM [inhibitor, partial curve, poor fit] | –
39 | Cc1c(C(=O)O)sc(S(=O)(=O)N2CCN(C(=O)CCc3ccccc3)CC2)c1C(=O)O | inconclusive: 25.1 µM [inhibitor, single point] | –
40 | Cc1ccc(C(C(=O)NC2CCCCC2)N(Cc2ccccc2)C(=O)Cc2c[nH]c3ccccc23)o1 (stereo not drawn) | inconclusive: 56.2 µM [inhibitor, partial curve, poor fit] | –
41 | Cc1cccn2c(=O)c3cc(C(=O)NCc4ccco4)c(=N)n(CCc4ccccc4)c3nc12 | inconclusive: 63.1 µM [inhibitor, partial curve, poor fit] | –
42 | CC1CCCCC1NC(=O)COC(=O)c1c2c(nc3ccccc13)/C(=C\c1ccco1)CC2 (stereo not drawn) | active: 10 µM | –
43 | CN(C)c1ccc(CNC(=O)CCNS(=O)(=O)c2cc(Br)cnc2N)cc1 | – | inactive: -10.1%
44 | COc1ccc(OC)c2[nH]c(=O)c(CCNC(=O)Cc3cccs3)cc12 | inconclusive: 112 µM [inhibitor, partial curve, poor fit] | –
45 | CS(=O)(=O)c1ccc2nc(NC(=O)c3ccc(=O)[nH]c3)sc2c1 | active: 50.1 µM | –
46 | CN1CCN(C(c2ccccc2)c2ccc(Cl)cc2)CC1 (stereo not drawn) | – | inactive: -5.38%

Row | Structure (SMILES) | Potency | activity change, negative = inhibition
47 | Cc1occc1C(=O)Nc1sccc1C(N)=O | inconclusive: 89.1 µM [inhibitor, single point] | –
48 | N#Cc1c(N)n(-c2ccc(O)cc2)c2nc3ccccc3nc12 | – | inactive: -0.346%
49 | c1ccc(CCNc2nc(-c3ccncc3)cs2)cc1 | – | inactive: 9.14%
50 | COc1ccc2c(c1)C(=NNc1ccc(C(=O)O)cc1)c1cc(OC)ccc1-2 | inconclusive: 15.8 µM [inhibitor, full curve, poor fit] | –
51 | COc1ccc2c(c1)c(=O)oc1cc(OCC(=O)N3CCC(C)CC3)ccc12 | active: 79.4 µM | –
52 | CC/C(O)=C1\C(=O)CC(c2ccccc2)CC1=NCCc1c(C)[nH]c2ccc(C)cc12 (stereo not drawn) | inconclusive: 89.1 µM [inhibitor, partial curve, poor fit] | –
53 | CCOc1cccc(OCCCCn2cnc3ccccc3c2=O)c1 | inconclusive: 25.1 µM [inhibitor, partial curve, poor fit] | –
54 | Cc1ccnc(NS(=O)(=O)c2ccc(NC(=O)c3cc(-c4ccc(Br)cc4)nc4ccccc34)cc2)n1 | active: 35.5 µM | –
55 | Cc1cnc(C(=O)OCC(=O)c2ccccc2)cn1 | – | inactive: 12.3%
56 | COc1ccc(C(=O)N/N=C/c2ccc(OC)c(COc3c(F)c(F)cc(F)c3F)c2)cc1 | inconclusive: 89.1 µM [inhibitor, partial curve] | –
57 | CC(C)c1ccc(NC(=O)C2CCCN2S(=O)(=O)c2ccccc2F)cc1 (stereo not drawn) | inconclusive: 14.1 µM [inhibitor, partial curve, poor fit] | –
58 | Cn1c(=O)[nH]c(NCCc2ccc(O)cc2)c([N+](=O)[O-])c1=O | – | inactive: -11.9%
59 | Cc1ccccc1CNC(=O)c1cc2cc(S(=O)(=O)N3CCCCC3)ccc2n1C | – | inactive: -16.1%
60 | COc1ccc2sc(/C=C/c3ccccc3O)[n+](C)c2c1 | active: 50.1 µM | –
61 | O=S(=O)(Nc1nccs1)c1ccc(Nc2nnc(-c3ccccc3)c3ccccc23)cc1 | inconclusive: 15.8 µM [inhibitor, partial curve, poor fit] | –
62 | CS(=O)(=O)c1ccc(C(=O)OCC(=O)NC2CCS(=O)(=O)C2)cc1[N+](=O)[O-] (stereo not drawn) | inconclusive: 39.8 µM [inhibitor, partial curve] | –
63 | COc1ccc(C(=O)NCCn2cc(SCc3cc(C)ccc3C)c3ccccc32)cc1 | – | inactive: -4.68%
64 | COc1cc2c(cc1OC)C(C)N(C(=O)Nc1ccccc1)CC2 (stereo not drawn) | – | inactive: -9.69%
65 | Cn1c(CNC(=O)CSc2nc(-c3cccc(Cl)c3)nc3cc(=O)[nH]n23)nc2ccccc21 | – | inactive: -11%
66 | CC(=O)NCCCC(=O)NNC1CC(=O)N(c2cccc(Cl)c2)C1=O (stereo not drawn) | – | inactive: 2.85%
67 | CCN1C(=O)[C@H]2[C@@H](c3ccc(C)cc3)N3C(=O)N(c4cccc(Br)c4)C(=O)[C@@]3(CC(C)C)[C@H]2C1=O | inconclusive: 70.8 µM [inhibitor, partial curve, poor fit] | –
68 | CCN(CC)S(=O)(=O)c1ccc2c(c1)nc(CN(C)C(=O)Nc1ccc(Cl)cc1)n2C | – | inactive: -11%
